# Reference: PubChem BioAssay AID1345083 (National Center for Advancing Translational Sciences (NCATS), 2018)
# Screen size: about 94,000 compounds; about 6,200 (6.6%) were called active. Inconclusive results, whose numbers are uncertain, are shown with a selection of clear calls. Calls come from the whole dose curve; as a rule, active = well fitted inhibition curve with a large enough effect; inconclusive = small, poorly fitted or top-dose-only effect; inactive = flat fitted curve, though single readings scatter. Where the call is inconclusive, the potency comes from a doubtful curve fit.
# Assay: Cytotoxic Profiling in HEK 293 Cell Line of Diverse Libraries Using Quantitative High-Throughput Screening; note: nearly all actives have a fitted effect of over 60% in size
# Conditions: HEK 293 viability, ATP luminescence (CellTiter-Glo), 48-72 h; activity change, negative = cytotoxicity: at 115 µM (top of the series) unless noted; series mostly up to 115 µM
# Procedure, shortened: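 Read-out: CellTiter-Glo ATP luminescence. Cells: HEK 293, 250 cells/well. Exposure: 48 or 72 hr, 37 degree Celsius.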
# % is set by controls: 0 for no effect and ±100 for the full control effect; potency is the fitted concentration of half-maximal effect; tags give direction and shape of the fitted curve.
SMILES,Potency,"activity change, negative = cytotoxicity",outcome
CC1(COc2cccnc2)COc2ccc(C(=O)NCCc3ccccc3)cc2N1 (stereo not drawn),"inconclusive: 39.8 µM [inhibitor, partial curve, poor fit]",,
CC1=C[C@@H](CO)[C@H](C(C)C)C[C@H]1Cc1nnc(C(C)(C)C)o1,"inconclusive: 100 µM [inhibitor, partial curve, poor fit]",,
CCC1Oc2ccc(NS(=O)(=O)c3ccccc3)cc2CN(Cc2ccc(F)cc2)C1=O (stereo not drawn),active: 35.5 µM,,
COc1cc(Cl)ccc1-c1cccc(CCOc2cnc3c(ccn3CC(=O)O)c2)c1,"inconclusive: 70.8 µM [inhibitor, partial curve, poor fit]",,
CCN(CC)Cc1ccc2c(c1)CN(C(=O)Cc1c[nH]c3ccccc13)CCO2,"inconclusive: 79.4 µM [inhibitor, partial curve, poor fit]",,
COc1ccc(-c2cc(C(=O)NCc3cc(C)on3)c3c(c2)N(C)CCO3)cn1,"inconclusive: 100 µM [inhibitor, partial curve, poor fit]",,
COc1cc(Cl)cc(CN2CCC(O)(c3ccccc3)CC2)c1OC,,inactive: -10.7%,
Cc1noc(C)c1[S+](=O)([O-])N1CCCC1C(=O)N1CCC(N2CCOCC2=O)CC1 (stereo not drawn),,,inactive
CCNc1ncc(CN2CCCC(CCc3cccc(C(F)(F)F)c3)C2)cn1 (stereo not drawn),"inconclusive: 50.1 µM [inhibitor, partial curve, poor fit]",,
CC(C)OC(=O)N1CCC(COc2cnc3c(ccn3CC(N)=O)c2)CC1,"inconclusive: 100 µM [inhibitor, partial curve, poor fit]",,
COc1ccc(NC(=O)c2cc(NC(=O)C3CC3)cc3nc(C)ccc23)cc1,"inconclusive: 79.4 µM [inhibitor, partial curve, poor fit]",,
COC[C@@H]1[C@H](C(=O)NCc2cc(OC)ccc2OC)CCC(=O)N1C,"inconclusive: 50.1 µM [inhibitor, partial curve, poor fit]",,
COc1cccc(-c2ccc(CN3CCCC3C(=O)NCc3ccccc3Cl)cc2)c1 (stereo not drawn),active: 31.6 µM,,
COc1ccc(CNC(=O)CC2CCCCN(Cc3ccccc3)C2=O)cc1 (stereo not drawn),"inconclusive: 79.4 µM [inhibitor, partial curve]",,
CC(Cn1cccn1)Nc1ccc(-c2nc(COc3ccccc3)no2)cn1 (stereo not drawn),"inconclusive: 50.1 µM [inhibitor, partial curve, poor fit]",,
O=C(Nc1cccc(F)c1)N1C[C@@H]2C[C@H](C1)c1c(-c3cc4ccccc4s3)ccc(=O)n1C2,"inconclusive: 56.2 µM [inhibitor, partial curve, poor fit]",,
Cc1noc(C)c1-c1cc2cc(CO)oc2c(NC2CCOCC2)n1,"inconclusive: 39.8 µM [inhibitor, partial curve, poor fit]",,

SMILES,Potency,"activity change, negative = cytotoxicity",outcome
COc1ccccc1N1CCN(C(=O)Cn2cccc2-c2nc(-c3ccccc3)no2)CC1,"inconclusive: 50.1 µM [inhibitor, partial curve, poor fit]",,
CC(C)CNc1ccc2c(n1)C(C)(C(=O)Nc1ccn(C)n1)CN(Cc1ccccc1)C2 (stereo not drawn),"inconclusive: 70.8 µM [inhibitor, partial curve]",,
Cc1nc2c(c(-c3ccc(O)cc3)n1)CN(Cc1ccc(OC(F)(F)F)cc1)CCC2,active: 35.5 µM,,
COc1ccc(NC(=O)O[C@@H]2CO[C@H]3[C@@H]2OC[C@@H]3NC(=O)NC2CCCCC2)cc1,,inactive: -27.6% [at 172 µM],
CC1(c2ccccc2)N(Cc2ncccn2)C(=O)OC12CCN(C(=O)c1ccc(Oc3ccccc3)cc1)CC2 (stereo not drawn),active: 39.8 µM,,
COc1ccc(Cc2nnc3ccc(C(=O)NCCc4ccc(Cl)cc4)cn23)cc1,active: 89.1 µM,,
CN1[C@@H](CCC(=O)N2CCC(O)CC2)CNC(=O)[C@@H]2[C@H]1CCN2Cc1ccc(O)cc1,,,inactive [at 172 µM]
O=C(NC1CC1)C1CCc2nnc(C3CC3)n21 (stereo not drawn),,,inactive [at 172 µM]
Cc1noc(-c2ccc(OC3CN(C(=O)Nc4ccccc4)C3)cc2)n1,"inconclusive: 39.8 µM [inhibitor, partial curve, poor fit]",,
COCCCNC(=O)C(NC(=O)c1ccccc1C)C1CCN(C(=O)CCc2ccccc2)CC1 (stereo not drawn),,inactive: -1.59%,
Cc1ncoc1C(=O)N1CCC(F)(c2nc(-c3ccncc3)no2)CC1,,inactive: -3.45%,
CC1CCN(c2ncncc2-c2nc(-c3ccccc3)no2)CC1,active: 79.4 µM,,
CN1c2cc(C(=O)Nc3ccc(Cl)cc3)ccc2C(=O)N2CCCCCC21 (stereo not drawn),active: 35.5 µM,,
Cc1cccc(NC(=O)N2CCC(c3cc(-c4cccc(C)c4)n[nH]3)CC2)c1,"inconclusive: 50.1 µM [inhibitor, partial curve, poor fit]",,
CCc1nc2c(c(-c3ccc(Cl)cc3)n1)CN(C(=O)Nc1ccccc1)CC2,"inconclusive: 79.4 µM [inhibitor, partial curve, poor fit]",,
N#Cc1cccc(C(=O)NC2CCN(c3cc(-c4ccc(Cl)cc4)[nH]n3)C2)c1 (stereo not drawn),"inconclusive: 50.1 µM [inhibitor, partial curve, poor fit]",,
